Binding signal (log2 fold change) data for 37 sequences are collected here from paper PMC5892938.

The list shows a part of the results. At the low end of the ranking the order means little.

This test deals with GST-SBP-SLBP (stem-loop binding protein) (UniProt Q14493). The test can be described thus: targeted RNA Bind-n-Seq.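 Further: DESeq read counts versus GST-SBP nonspecific binding control pulldown.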 The following applies: RBNS binding buffer: 25 mM Tris pH 7.5, 150 mM KCl, 3 mM MgCl2, 0.1% Tween, 0.5 mg/mL BSA, 1 mM DTT; 27 nM protein, 750 pM RNA pool; temperature not stated; high values mean tight binding.
“GGUCACGUCUCAAUCAACUCAACUUCAGGAGUUUACUCCUGCAAUGUCAACAGCUCGCAGUCAAG”: the binding signal (log2 fold change) was -0.0501.

Regarding “GGUCACGUCUCAAUCAACUCAUCGCCAGGAGUUUACUCCUGUUUAUUCAACAGCUCGCAGUCAAG”, the binding signal (log2 fold change) was -0.163.

Regarding “GGUCACGUCUCAAUCAACUCUUACGAGGGGGGGAAAACCCCUUUACCCUCAAUAUCAACAGCUCGCAGUCAAG”, the binding signal (log2 fold change) was -0.0458.

On to “GGUCACGUCUCAAUCAACUCUCUCGAGGGGGGGAAAACCCCUUUACCCUCUUCUUCAACAGCUCGCAGUCAAG”, for which the binding signal (log2 fold change) is -0.00259.

“GGUCACGUCUCAAUCAACUCUACGGAGGGGGGGAAAACCCCUUUACCCUCAAUAUCAACAGCUCGCAGUCAAG”: the binding signal (log2 fold change) is -0.083.

Take “GGUCACGUCUCAAUCAACUCCCACGAGGGGGGGAAAACCCCUUUACCCUCUCCAUCAACAGCUCGCAGUCAAG”: the binding signal (log2 fold change) is 0.3.

For the sequence “GGUCACGUCUCAAUCAACUCUUCGUCCAGGGAAACCCCUGGCUUAUUCAACAGCUCGCAGUCAAG”, the binding signal (log2 fold change) is 0.045.

For the sequence “GGUCACGUCUCAAUCAACUCAACGCCAGGAGUUUCCUCCUGCUUAUUCAACAGCUCGCAGUCAAG”, the binding signal (log2 fold change) stood at 0.0567.

Take “GGUCACGUCUCAAUCAACUCUUCAGAGGGGGGGAAAACCCCUUUACCCUCCAUUUCAACAGCUCGCAGUCAAG”: the binding signal (log2 fold change) is -0.464.

As for “GGUCACGUCUCAAUCAACUCUUCCCCCAGGGAAAUCCCUGGUUUUCUCAACAGCUCGCAGUCAAG”, the binding signal (log2 fold change) is -0.0537.

Regarding “GGUCACGUCUCAAUCAACUCAUUUUCCAGGGAAAGCCCUGGUAAUUUCAACAGCUCGCAGUCAAG”, the binding signal (log2 fold change) is 0.0265.

As to “GGUCACGUCUCAAUCAACUCUUCGCCAGGAGUUUACUCCUGUAAUUUCAACAGCUCGCAGUCAAG”, the binding signal (log2 fold change) was -0.121.

As for “GGUCACGUCUCAAUCAACUCAUUCUCCAGGGAAAACCCUGGCAAACUCAACAGCUCGCAGUCAAG”, the binding signal (log2 fold change) is -0.0901.

As to “GGUCACGUCUCAAUCAACUCAUUCUCAGGAGUUUACUCCUGUUUAGUCAACAGCUCGCAGUCAAG”, the binding signal (log2 fold change) was -0.0703.

As for “GGUCACGUCUCAAUCAACUCUUCGUCCAGGGAAAGCCCUGGUUAUCUCAACAGCUCGCAGUCAAG”, the binding signal (log2 fold change) was 0.0586.

For the sequence “GGUCACGUCUCAAUCAACUCCUCAGAGGGGGGGAAAACCCCUUUACCCUCAUUAUCAACAGCUCGCAGUCAAG”, the binding signal (log2 fold change) was 0.4.

As for “GGUCACGUCUCAAUCAACUCUUCCCCCAGGGAAAGCCCUGGUAUUUUCAACAGCUCGCAGUCAAG”, the binding signal (log2 fold change) is -0.0216.

Regarding “GGUCACGUCUCAAUCAACUCAUCCUCAGGAGUUUUCUCCUGCUUUGUCAACAGCUCGCAGUCAAG”, the binding signal (log2 fold change) amounted to 0.0608.

As to “GGUCACGUCUCAAUCAACUCAAUUUCAGGAGUUUUCUCCUGCUUUCUCAACAGCUCGCAGUCAAG”, the binding signal (log2 fold change) was found to be 0.0195.

As to “GGUCACGUCUCAAUCAACUCAAUCCCAGGAGUUUUCUCCUGUAAAUUCAACAGCUCGCAGUCAAG”, the binding signal (log2 fold change) is 0.0714.

Consider “GGUCACGUCUCAAUCAACUCUUUCGAGGGGGGGAAAACCCCUUUGCCCUCAAUCUCAACAGCUCGCAGUCAAG”, for which the binding signal (log2 fold change) is 0.0134.

Regarding “GGUCACGUCUCAAUCAACUCUUCUUCCAGGGAAAUCCCUGGUAAUUUCAACAGCUCGCAGUCAAG”, the binding signal (log2 fold change) turned out to be 0.413.

Turning to “GGUCACGUCUCAAUCAACUCUUCCUCCAGGGAAAUCCCUGGUUAUCUCAACAGCUCGCAGUCAAG”, the binding signal (log2 fold change) is -0.106.

As for “GGUCACGUCUCAAUCAACUCUUUCCCCAGGGAAAACCCUGGCUUUUUCAACAGCUCGCAGUCAAG”, the binding signal (log2 fold change) is 0.0195.

For “GGUCACGUCUCAAUCAACUCAACUCCAGGAGUUUGCUCCUGUAAUUUCAACAGCUCGCAGUCAAG”, the binding signal (log2 fold change) came to 0.155.

Consider “GGUCACGUCUCAAUCAACUCAUUUUCCAGGGAAAGCCCUGGCUAACUCAACAGCUCGCAGUCAAG”, for which the binding signal (log2 fold change) was -0.0607.

In the case of “GGUCACGUCUCAAUCAACUCAUUCCCCAGGGAAACCCCUGGCUAUCUCAACAGCUCGCAGUCAAG”, the binding signal (log2 fold change) amounted to 0.119.

Turning to “GGUCACGUCUCAAUCAACUCAUUCCCCAGGGAAAUCCCUGGCAUACUCAACAGCUCGCAGUCAAG”, the binding signal (log2 fold change) was found to be 0.0577.

Turning to “GGUCACGUCUCAAUCAACUCAUUUCCCAGGGAAAGCCCUGGUUUUUUCAACAGCUCGCAGUCAAG”, the binding signal (log2 fold change) is 0.101.

As to “GGUCACGUCUCAAUCAACUCUUCUUCAGGAGUUUCCUCCUGUAAAUUCAACAGCUCGCAGUCAAG”, the binding signal (log2 fold change) amounted to 0.0644.

Regarding “GGUCACGUCUCAAUCAACUCAAUAGAGGGGGGGAAAACCCCUUUGCCCUCACAAUCAACAGCUCGCAGUCAAG”, the binding signal (log2 fold change) came to 0.199.

Regarding “GGUCACGUCUCAAUCAACUCAUCGCCAGGAGUUUCCUCCUGUAAUUUCAACAGCUCGCAGUCAAG”, the binding signal (log2 fold change) is -0.0715.

In the case of “GGUCACGUCUCAAUCAACUCUUUUCCCAGGGAAAUCCCUGGCAAAUUCAACAGCUCGCAGUCAAG”, the binding signal (log2 fold change) came to 0.255.

As for “GGUCACGUCUCAAUCAACUCAAUUUCCAGGGAAAGCCCUGGCUAUUUCAACAGCUCGCAGUCAAG”, the binding signal (log2 fold change) was -0.0388.

Consider “GGUCACGUCUCAAUCAACUCUAUUUCAGGAGUUUUCUCCUGCAUACUCAACAGCUCGCAGUCAAG”, for which the binding signal (log2 fold change) turned out to be 0.102.

“GGUCACGUCUCAAUCAACUCUAUUCCAGGAGUUUUCUCCUGCUAUCUCAACAGCUCGCAGUCAAG”: the binding signal (log2 fold change) came out at 0.0293.

As to “GGUCACGUCUCAAUCAACUCCAUAGAGGGGGGGAAAACCCCUUUACCCUCAUUUUCAACAGCUCGCAGUCAAG”, the binding signal (log2 fold change) came to 0.342.
